Data reported in ChEMBL document CHEMBL4888484, “Replenishing the malaria drug discovery pipeline: Screening and hit evaluation of the MMV Hit Generation Library 1 (HGL1) against asexual blood stage Plasmodium falciparum ,using a nano luciferase reporter read-out” (2022).
Screen size: about 150,000 compounds; about 540 (0.36%) showed an effect of 50% or more. The list shows a part of the results.

These compounds were tested on Plasmodium falciparum (assay: Primary screen in NF54 nanoGlo assay, in single point, at 2uM, 72h; a lower Z score goes with more inhibition). Settings: timepoint 72 hour.
Assay type: functional, Erythrocyte
With `CC(C)(C)[C@H](NC(N)=O)C(=O)Nc1ccsc1` the “% Inhibition” value was -13% and the Z score was 1.27. In the case of `O=C(NCc1ccncc1)c1ccc2c(=O)n(-c3cccc(Cl)c3)cnc2c1`, the “% Inhibition” value is reported as -13% and the Z score is reported as 1.56. `CCc1nnc2cc(N3CCN(Cc4cccs4)CC3)cnn12` was tested, and the “% Inhibition” value was -7% and the Z score was 1.18. For `CN1C(=O)CN(CC(=O)N2CC[C@H]2c2ccc(F)cc2)C(=O)c2ccccc21`, the “% Inhibition” value was 6% and the Z score was -0.98. For `CC(C)CC(C)(CC(=O)O)C(=O)N1CCCC1C1CCOCC1` (centres undefined), the “% Inhibition” value was -14% and the Z score was 1.48. With `CC1(C)C(=O)NCCN1C(=O)c1ccc(-c2cncnc2)cc1F` the “% Inhibition” value was -7% and the Z score was 1.24. For `O=C1CC[C@@]2(CCCN(C(=O)c3ccc[nH]3)C2)CN1Cc1ccncc1`, the “% Inhibition” value was 4% and the Z score was -0.84. In the case of `CC(C)c1nccc(C(=O)NCc2nccn2C)n1`, the “% Inhibition” value is reported as -24% and the Z score is reported as 2.35. `Cc1cncc(C(=O)N(Cc2nnc(C)o2)C(C)(C)C)c1` was tested, and the “% Inhibition” value was -4% and the Z score was 0.42. In the case of `CC(C)N(CCO)Cc1nc(C(F)(F)F)cs1`, the “% Inhibition” value is reported as -13% and the Z score is reported as 1.44. `CC(C)CN1CC2(CCN(C(=O)Nc3ccccc3Cl)CC2)CC1=O` was tested, and the “% Inhibition” value was -12% and the Z score was 1.98. For `Cc1c(-c2cnn(C)c2)nc(N)c(C#N)c1-c1ccc(C(=O)O)cc1`, the “% Inhibition” value was -13% and the Z score was 2.26. `CCN(Cc1ccc(C(F)(F)F)cc1)[C@H]1CCNC1=O` was tested, and the “% Inhibition” value was -8% and the Z score was 0.69. For `COc1ccc(NC(=O)C2[C@@H]3C=C[C@]4(O3)C(C(=O)NC3CCCCC3)N(C(C)c3ccccc3)C(=O)[C@H]24)cc1` (some centres undefined), the “% Inhibition” value was 8% and the Z score was -1.22. With `COc1ccc2c(c1)CCCN(C(=O)Nc1ccn(CC#N)n1)C2` the “% Inhibition” value was -4% and the Z score was 0.39. With `CCCN(CC#N)CC(=O)NC(=O)Nc1ccccc1` the “% Inhibition” value was -10% and the Z score was 0.87. `CC1(C)C[C@@](C)(c2ccccc2)c2ccccc2N1C(=O)COc1nc2ccccc2s1` was tested, and the “% Inhibition” value was -3% and the Z score was 0.57. With `Nc1nc2c(c(N3CCc4nc(N)sc4C3)n1)CCCC2` the “% Inhibition” value was -9% and the Z score was 0.86. In the case of `Cc1cccc2c(NCCS(C)(=O)=O)ncnc12`, the “% Inhibition” value is reported as -8% and the Z score is reported as 1.43. For `Cn1nccc1CN1CCOc2ccc(F)cc21`, the “% Inhibition” value was -16% and the Z score was 2.17. In the case of `C[C@@H](c1c(F)cccc1F)S(=O)(=O)CC(=O)N1CCCc2ccccc21`, the “% Inhibition” value is reported as -14% and the Z score is reported as 1.39. In the case of `COc1cc(NC(=O)Cn2nc3c(cc2=O)CCC3)cc(OC)c1`, the “% Inhibition” value is reported as -2% and the Z score is reported as 0.2. In the case of `Cn1c(C(=O)NCc2ccc(Cl)cc2)nnc1N1CC2CCC(C1)O2`, the “% Inhibition” value is reported as -3% and the Z score is reported as 0.42. `COCc1c(C(=O)NC(C)(C)CO)cnn1-c1ncc2c(n1)-c1ccccc1CCC2` was tested, and the “% Inhibition” value was -10% and the Z score was 1.69. `O=C(COc1cccc(Cl)c1)N[C@@H](Cc1ncc[nH]1)c1ccccc1` was tested, and the “% Inhibition” value was -2% and the Z score was 0.22. With `COc1cc(OC)cc(-c2nc(-c3ccc4c(c3)ncn4CCC(=O)N3CCCCCC3)no2)c1` the “% Inhibition” value was -12% and the Z score was 2. In the case of `O=C(NCCC1CCN(C(=O)NC2CCCCC2)CC1)c1cccc(F)c1`, the “% Inhibition” value is reported as -2% and the Z score is reported as 0.25. With `CC(C)c1ccc([C@H]2C[C@@H](C)Nc3nc(CO)nn32)cc1` the “% Inhibition” value was -11% and the Z score was 1.61. For `Cc1nc(N[C@@H](Cc2ccc(O)cc2)C(N)=O)c2c(C)noc2n1`, the “% Inhibition” value was -10% and the Z score was 1.47. In the case of `CC1CCCC(NC(=O)C2CCN(S(=O)(=O)c3ccc4nc5c(c(C(=O)O)c4c3)CCCC5)CC2)C1C` (centres undefined), the “% Inhibition” value is reported as -8% and the Z score is reported as 1.21. For `CC[C@H](NC(=O)N1CC(Cc2cccc(C)c2)C1)c1nccs1`, the “% Inhibition” value was 17% and the Z score was -2.22. With `CCc1noc([C@H](C)Oc2ccc3c(c2)CCCNC3=O)n1` the “% Inhibition” value was -3% and the Z score was 0.66. In the case of `CC[C@@H](C(=O)Nc1ncccc1Br)c1c(C)noc1C`, the “% Inhibition” value is reported as 1% and the Z score is reported as -0.18. `O=C(NC1CCCCC1)N1CCC(CCNS(=O)(=O)c2ccc(F)c(Cl)c2)CC1` was tested, and the “% Inhibition” value was 2% and the Z score was -0.36. In the case of `O=C1C[C@H](c2ccc3c(c2)OCCO3)c2sc(Nc3ccccc3)nc2N1`, the “% Inhibition” value is reported as 28% and the Z score is reported as -3.13. In the case of `CN(CC(=O)Nc1cc(S(=O)(=O)N2CCCCC2)ccc1Cl)C1CCCCCC1`, the “% Inhibition” value is reported as 25% and the Z score is reported as -2.81. `CNC(=O)c1cc(O[C@H]2CCCN(c3ccnc(C)n3)C2)ccn1` was tested, and the “% Inhibition” value was 7% and the Z score was -0.9. In the case of `Cc1ccc(NC(=O)Cn2c(=O)ncc3cc(S(=O)(=O)N4CCCC[C@@H]4C)ccc32)cc1Cl`, the “% Inhibition” value is reported as 31% and the Z score is reported as -3.55. In the case of `O=C1C[C@H](c2nc(-c3ccccc3)c(CCc3ccccc3)[nH]2)CN1`, the “% Inhibition” value is reported as 2% and the Z score is reported as -0.2. With `CCN(C)CCN(CC)C(=O)CCc1cc2c(n1-c1ccc(OC)cc1)-c1ccccc1CC2` the “% Inhibition” value was 23% and the Z score was -4.02. With `CCOc1ccc(-c2nn(-c3ccccc3)cc2/C=C(\C(=O)c2ccccc2)c2nc3ccccc3o2)cc1` the “% Inhibition” value was 22% and the Z score was -2.51. In the case of `CCC(=O)N(CCN1CCOCC1)CC(=O)N1N=C(c2ccc(OC)cc2)C[C@H]1c1ccc(C)cc1`, the “% Inhibition” value is reported as -20% and the Z score is reported as 1.73. In the case of `O=C(CCc1nnc(C2CCCC2)o1)N1CCC[C@H]1c1ccc[nH]1`, the “% Inhibition” value is reported as -8% and the Z score is reported as 0.8. `CCOC(=O)[C@H](CC)n1nnc(-c2ccc3ncccc3c2)n1` was tested, and the “% Inhibition” value was 10% and the Z score was -1.55. In the case of `CCC(C)Oc1cc(-c2nc(C3CCCO3)no2)ccn1` (centres undefined), the “% Inhibition” value is reported as 9% and the Z score is reported as -1.7. `CO[C@H]1COC[C@@H]1NC(=O)N(C)Cc1nc(C)no1` was tested, and the “% Inhibition” value was 6% and the Z score was -1.02. In the case of `CS(=O)(=O)NCCNC(=O)NCCOc1ccc(F)c(F)c1`, the “% Inhibition” value is reported as -10% and the Z score is reported as 1.26. In the case of `C[C@@H](c1nnnn1C1CCCCC1)N1CCN(Cc2ccccn2)CC1`, the “% Inhibition” value is reported as 5% and the Z score is reported as -0.85. With `Cc1ccc(OC2(C(=O)O)CCN(C(=O)[C@]3(C)CCCO3)CC2)cc1` the “% Inhibition” value was -4% and the Z score was 0.81. With `COC[C@H](C)Nc1c(F)cc(C#N)cc1F` the “% Inhibition” value was -13% and the Z score was 1.12. For `FC(F)c1nn(Cc2nc3c4cnn(-c5ccccc5)c4ncn3n2)c(C2CC2)c1Cl`, the “% Inhibition” value was -4% and the Z score was 0.61. For `CCc1cc(N2CCO[C@H](c3nccs3)C2)n2ncnc2n1`, the “% Inhibition” value was -14% and the Z score was 1.96. With `CC(=O)N[C@H]1[C@H](Oc2ccc(Cl)cc2Cl)O[C@@H]2COC(c3ccccc3)O[C@H]2[C@@H]1O` (some centres undefined) the “% Inhibition” value was 0% and the Z score was -0.01. With `CC(=O)NCc1ccc(C(=O)N/C(=N/c2ccccc2)NC[C@H]2CCCO2)cc1` the “% Inhibition” value was -10% and the Z score was 0.93. For `C#CC(C)(C)N(C)S(=O)(=O)c1cccs1`, the “% Inhibition” value was -4% and the Z score was 0.76. `CCN1CCN(C2=NCCN2C(=O)C2CCCC2)CC1` was tested, and the “% Inhibition” value was -7% and the Z score was 1.26. With `COc1ccc2c(c1)OCCC2NC(=O)C(C)Cc1c(C)n[nH]c1C` (centres undefined) the “% Inhibition” value was 0% and the Z score was -0.05. `Cc1cc(=O)[nH]c(N2CCC(NC(=O)[C@@H]3COc4ccccc4O3)CC2)n1` was tested, and the “% Inhibition” value was -3% and the Z score was 0.46. With `O=C(COC[C@H]1CCCCO1)NC(C1CC1)C1CC1` the “% Inhibition” value was -8% and the Z score was 1.05. `Cn1cc(Cl)c(-c2nc3ccc(C(=O)O)cc3[nH]2)n1` was tested, and the “% Inhibition” value was -5% and the Z score was 0.67. `O=C(CCn1cc(Br)ccc1=O)Nc1ncccc1O` was tested, and the “% Inhibition” value was -4% and the Z score was 0.76. `O=C(NCC1(c2cccs2)CC1)Nc1cccs1` was tested, and the “% Inhibition” value was -9% and the Z score was 1.32. For `COc1cc(C)ccc1OCCOCCN(C)C`, the “% Inhibition” value was -2% and the Z score was 0.33. `COc1ccc(C(=O)N[C@@H]2COCC[C@@H]2OCc2ccccn2)cn1` was tested, and the “% Inhibition” value was -4% and the Z score was 0.71. With `Cc1c(-c2cc(-c3cnn(C)c3C)n(CC(=O)Nc3ccccc3)n2)cnn1C` the “% Inhibition” value was 33% and the Z score was -3.76. With `CCOc1ccc(NC(=O)N(Cc2cn(C)c3ccccc23)C2CCCCC2)cc1` the “% Inhibition” value was 33% and the Z score was -4.47. In the case of `CC(=O)N1C[C@@H]2CN(Cc3ccc(CC(C)C)cc3)C[C@]2(C(=O)O)C1`, the “% Inhibition” value is reported as -2% and the Z score is reported as 0.46. `Fc1cnccc1CN[C@H]1CCOc2c(Br)cccc21` was tested, and the “% Inhibition” value was -1% and the Z score was 0.19. With `c1cncc(-c2nc3cc(-n4ccnc4)ccc3o2)c1` the “% Inhibition” value was -9% and the Z score was 1.36. In the case of `COc1ccc(CCOc2nc(-c3ccc(C)cc3)n(-c3ccc(NC(=O)C4CCC4)cc3)n2)cc1`, the “% Inhibition” value is reported as -10% and the Z score is reported as 0.93. In the case of `CC1(C)C(NCCc2cccc(C(N)=O)c2)[C@@H]2CCC[C@@H]21` (some centres undefined), the “% Inhibition” value is reported as -8% and the Z score is reported as 1.57. `CC(NC(=O)C1CCCc2c(O)cccc21)c1ncon1` (centres undefined) was tested, and the “% Inhibition” value was 6% and the Z score was -0.73. `C=CCNC(=O)NC(=O)[C@H](C)S(=O)(=O)c1ccccc1` was tested, and the “% Inhibition” value was -3% and the Z score was 0.27. In the case of `CN(C)c1nc(N2CC[C@H](NC(=O)c3cnccn3)[C@@H](O)C2)ncc1F`, the “% Inhibition” value is reported as -12% and the Z score is reported as 1.57. In the case of `O=C(Nc1ccc(N2CCOCC2)cc1)c1cccc(-c2cnc3ccccc3c2)c1`, the “% Inhibition” value is reported as -24% and the Z score is reported as 3.15. `O=C(NCC1CCCO1)[C@@H]1CNC[C@H](C(=O)Nc2ccc3c(c2)CCC3)C1` (some centres undefined) was tested, and the “% Inhibition” value was -12% and the Z score was 1.37. With `CN1CC2(CCN(c3cc(C(N)=O)ccn3)CC2)C[C@@H](c2ccccc2)C1=O` the “% Inhibition” value was 16% and the Z score was -2.14. In the case of `O=C1CC2(CCN(C(=O)N3CCOCC3)CC2)CN1Cc1ccc(Cl)cc1`, the “% Inhibition” value is reported as 7% and the Z score is reported as -0.99. `CN1C(=O)c2ccc(NC(=O)c3ccsc3)cc2C1=O` was tested, and the “% Inhibition” value was -1% and the Z score was 0.07. In the case of `Cc1noc(C)c1NC(=O)N[C@H](c1ccccc1)C1(CO)CCC1`, the “% Inhibition” value is reported as 0% and the Z score is reported as -0.04. For `NC(=O)[C@@H]1CCCN1S(=O)(=O)c1ccc(OCC2CCCCC2)cc1`, the “% Inhibition” value was -4% and the Z score was 0.47. With `CCN(CC)CCNC(=O)CC1CCN(C(=O)c2ccc3oc(-c4ccc(C)cc4)nc3c2)CC1` the “% Inhibition” value was -13% and the Z score was 1.57.
